Experimental findings from the supplement of paper PMC11369174, “Proteome-scale characterisation of motif-based interactome rewiring by disease mutations” (Molecular Systems Biology, 2024) are described below.

The other results are listed elsewhere or left out. The data scatter; read single values as rough.

For the first test, the target named is T1, ZMYND11_coiled-coil-MYND__Q15326_480_602.
T1 chain: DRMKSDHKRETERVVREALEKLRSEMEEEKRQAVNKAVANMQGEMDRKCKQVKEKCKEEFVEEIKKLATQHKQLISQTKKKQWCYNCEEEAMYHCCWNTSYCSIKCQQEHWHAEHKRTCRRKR
The test is described as follows: mutation enrichment score (mutant vs wild-type peptide binding to bait); baits are purified protein domains named by gene / domain / UniProt id / residues; peptides come from disordered regions of human proteins; higher = mutation enhances binding relative to wild type. As to conditions: number of wild-type / mutant comparisons summed (bounds the score): 6; paper call: no_effect; wild-type window: ….
Regarding RLPNGVLPNAVLPPSLDHVYVQWRQQEPETPESGQPPGDPS [A1541V A1541V], the mutation enrichment score turned out to be 3.
The same measure, in the same setting: with RAAVPYPPTVADLQRMFPTPTSLEQHPAFSPVMNYKDGISS [P869T P869T] the figure was -2; with LDARPEVTRNDVAPTLMSVPQYLPRPANPDEIGNFIDENLK [R796Q R796Q], 3.
Still for that read-out and setting: with RPIVKPEYFTEFLKAVESKKEPPQIESFYPPLDEPSIGSKN [Q189E Q189E] the figure was 2; with DGRAAVPYPPTVADLQRMFPIPPSLEQHPAFSPVMNYKDGI [T867I T867I], -2; with LQGFRLEEYLIGQSIGKGCSPAVYEATMPTLPQNLEVTKST [A168P A168P], 3.
On the same count and under the same terms, the figure for KNASQKRRSLRVHIPDLSSFTMPLLDGDLEGSGKHSSRKVD [A44T A44T] is 3; for LSAPSAPIFQDVLLQFLDTQPPMLTDPRSESERVEFFNLVL [A578P A578P] it is 1.
As for SPEGTLTVEAPMPKLATQSNKITIPVTFESRAQLGGPEAAK [E178K E178K], the mutation enrichment score is -1.
For the molecule PLHPTPPPASTAAGMPSLQHATPPGMTPPQPAAPTQPSTPV [T872A T872A], the mutation enrichment score is -2.
On the same count and under the same terms, the figure for GEEDAGGREDSILVNGACSDKSSDSPPILEAIRTPEIRGRR [Q30K Q30K] is -3.5; for LGKDGRAAVPYPPTVADLQRKFPTPPSLEQHPAFSPVMNYK [M864K M864K] it is -2.
LGKDGRAAVPYPPTVADLQRLFPTPPSLEQHPAFSPVMNYK [M864L M864L]: the mutation enrichment score is -2.
Still for that read-out and setting: the figure for VIEDNKSENILENTDSMETDGIIPILEKLAPSEDELTCFSK [E434G E434G] is 1; for RRQPNISDQQVSALSYSDQIEQPLTNQVMPDIVMLQRRMPQ [Q63E Q63E] it is -3.
Consider RRQPNISDQQVSALSYSDQIKQPLTNQVMPDIVMLQRRMPQ [Q63K Q63K], for which the mutation enrichment score was -1.9.

The target of another test is USP7_MATH-TRAF__Q93009_53_206. The test is described as above. As to conditions: number of wild-type / mutant comparisons summed (bounds the score): 20; paper call: diminished; wild-type window: ….
USP7_MATH-TRAF__Q93009_53_206, sequence (chain, as listed by the source): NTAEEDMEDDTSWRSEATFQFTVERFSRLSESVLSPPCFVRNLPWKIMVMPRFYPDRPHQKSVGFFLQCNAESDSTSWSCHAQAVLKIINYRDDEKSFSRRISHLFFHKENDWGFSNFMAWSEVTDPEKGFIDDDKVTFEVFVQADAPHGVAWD
CGTCGQPADKASASGSGAQVSGPISSGSSASSVTVTRSYRS [G608S G608S]: the mutation enrichment score is -5.

The target in another test is WWTR1_WW__Q9GZV5_122_160. The test is described as above. As to conditions: number of wild-type / mutant comparisons summed (bounds the score): 6; paper call: no_effect; wild-type window: ….
WWTR1_WW__Q9GZV5_122_160, sequence (chain, as listed by the source): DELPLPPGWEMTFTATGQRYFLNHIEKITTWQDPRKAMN
As to NRKTQETAVAMHVAANSIQNMPPGYPNMNQGGMMGTGPPYG [R911M R911M], the mutation enrichment score came to 3.
Same read-out and setting: with KGSRAAMSLQEEAEPTPSPPYPNRESLALALTAAHSRSGSE [S2032Y S2032Y] the figure was 2.
Still for that read-out and setting: the figure for LSQIPSDTASPLLILPPPVPTPSPTLRPVETPVVGAPGMGS [N457T N457T] is 1.
On the same count and under the same terms, with ELGSNVSGTQTYPVVTGRDMVSTTLPGYPPHVPPTGQGSYP [A334V A334V] the figure was 3.

Another test addresses WDR5_WD_1234567_P61964_21_334. Described as above. As to conditions: number of wild-type / mutant comparisons summed (bounds the score): 6; paper call: no_effect; wild-type window: ….
Take FMWCELSVVILLESTGLGLLCASIGYFLFLFALPILVAGLA [R558C R558C]: the mutation enrichment score is -4.
Same read-out and setting: with FMWCELSVVILLESTGLGLLHASIGYFLFLFALPILVAGLA [R558H R558H] the figure was -4; with FMWCELSVVILLESTGLGLLSASIGYFLFLFALPILVAGLA [R558S R558S], -4; with MEATRRRQHLGATGGPGAQLTASFLQ [R6T R6T], 2.
Consider LLYGWAVIPMMYPASFLFDVLSTAYVALSCANLFIGINSSA [P1788L P1788L], for which the mutation enrichment score was 2.
Still for that read-out and setting: with YLGTDIAAGEEVAIKLECVKAKHPQLHIESKIYKMMQGGVG [T44A T44A] the figure was 1.9.
Still for that read-out and setting: with GHDDGQRPSGGAAAAPRRGAHLRRPRHSHPTRARRCPGGLP [Q85H Q85H] the figure was 1.
The same measure, in the same setting: with KEDLQELNDRLAVYIDRVRSVETENAGLRLRITESEEVVSR [L52V L52V] the figure was 2.
Regarding QLYIYIRLLGAYLFIISRVQRQNLDSMLHGTGMKSDSDQKK [G23R G23R], the mutation enrichment score is -2.
The same measure, in the same setting: with MATRGGAGVAMAVWSLLSARMVTAFLLLF [V9M V9M] the figure was 0.67; with EMEGTVKSKYKASITALEAKVAQLEEQLDNETKERQAACKQ [I1816V I1816V], -2; with ELSVVILLESTGLGLLRASIRYFLFLFALPILVAGLALVGV [G562R G562R], -4.
The same measure, in the same setting: with ELSVVILLESTGLGLLRASISYFLFLFALPILVAGLALVGV [G562S G562S] the figure was -3.9.
Same read-out and setting: the figure for SYTSGLETLLNIPIKRTMIQPPSGVILQEAADVHARYIELL [S987P S987P] is -2; for SYTSGLETLLNIPIKRTMIQTPSGVILQEAADVHARYIELL [S987T S987T] it is -2; for DDMFNFETFGNSMICLFQITASAGWDGLLAPILNSKPPDCD [T1722A T1722A] it is 1.

The next test has as its target USP7_MATH-TRAF__Q93009_53_206. The description is as above. As to conditions: number of wild-type / mutant comparisons summed (bounds the score): 15; paper call: no_effect; wild-type window: ….
Take SAMGKSPLSQGDSSAPSLPKEAASTSGPTPAASQALNPQAQ [Q136E Q136E]: the mutation enrichment score was 1.8.
The same measure, in the same setting: the figure for PPLGISLPQVELTGFGEAGTSGQQAQSTVPSAEGTAGYRVQ [P1166S P1166S] is 4.

In a further test the target is WDR5_WD_1234567_P61964_21_334. The description is as above. As to conditions: number of wild-type / mutant comparisons summed (bounds the score): 12; paper call: no_effect; wild-type window: ….
Take SQSESSSHPALSQSPMPQERSFMAGTQRNPQMAQYGPQQTG [G778S G778S]: the mutation enrichment score came out at 2.
For the molecule FNVTPHHHQHSHIHSHLHLHRQDPLHQGSAGPVHPLVDPLT [Q1440R Q1440R], the mutation enrichment score was -2.
The same measure, in the same setting: with MLELTPEEVVQRVRSPPPLCGPLVSMDQAPVECILLMKQCW [R768G R768G] the figure was 1.
Still for that read-out and setting: the figure for LARLQMFNVTPHHHQHSHIHPHLHLHQQDPLHQGSAGPVHP [S1434P S1434P] is 0.
In the case of SASHQADIKEARREVEVKLTLLILKPFGNSISRYNGEPEHI [P119L P119L], the mutation enrichment score is 2.

The target of a further test is T1, ZMYND11_coiled-coil-MYND__Q15326_480_602. Described as above. As to conditions: number of wild-type / mutant comparisons summed (bounds the score): 12; paper call: no_effect; wild-type window: ….
LRRSLPPGLLRRVSSTWTTTSSATGLPTLEPAPVRRDRSTS [T445S T445S]: the mutation enrichment score stood at 1.
Still for that read-out and setting: the figure for QEAWVQNTSVVENVCFGQELGPPWLERVLEACALQPDVDSF [D718G D718G] is 2.1.

Still in this test, the particulars now being: number of wild-type / mutant comparisons summed (bounds the score): 12; paper call: enhanced; wild-type window: ….
As to TQEPFREELAYDRMPTLERGQQDPASYAPDAKPSDLQLSKR [R22Q R22Q], the mutation enrichment score came out at 10.
